Experimental data: PMC4336329 (PLoS ONE, 2015)
In all, about 310,000 compounds went through this assay and about 14,000 (4.5%) showed an effect of 50% or more. The effect is printed as a negative number. This is one part of the list.

molecular target: human ether-à-go-go-related gene (hERG) potassium channel (human, UniProt Q12809); experiment: primary screen, population patch clamp on CHO cells stably expressing hERG
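Further: peak tail current of the secondary pulse compared with the same well before compound.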

Sequence of human ether-à-go-go-related gene (hERG) potassium channel (Q12809 whole entry, looked up): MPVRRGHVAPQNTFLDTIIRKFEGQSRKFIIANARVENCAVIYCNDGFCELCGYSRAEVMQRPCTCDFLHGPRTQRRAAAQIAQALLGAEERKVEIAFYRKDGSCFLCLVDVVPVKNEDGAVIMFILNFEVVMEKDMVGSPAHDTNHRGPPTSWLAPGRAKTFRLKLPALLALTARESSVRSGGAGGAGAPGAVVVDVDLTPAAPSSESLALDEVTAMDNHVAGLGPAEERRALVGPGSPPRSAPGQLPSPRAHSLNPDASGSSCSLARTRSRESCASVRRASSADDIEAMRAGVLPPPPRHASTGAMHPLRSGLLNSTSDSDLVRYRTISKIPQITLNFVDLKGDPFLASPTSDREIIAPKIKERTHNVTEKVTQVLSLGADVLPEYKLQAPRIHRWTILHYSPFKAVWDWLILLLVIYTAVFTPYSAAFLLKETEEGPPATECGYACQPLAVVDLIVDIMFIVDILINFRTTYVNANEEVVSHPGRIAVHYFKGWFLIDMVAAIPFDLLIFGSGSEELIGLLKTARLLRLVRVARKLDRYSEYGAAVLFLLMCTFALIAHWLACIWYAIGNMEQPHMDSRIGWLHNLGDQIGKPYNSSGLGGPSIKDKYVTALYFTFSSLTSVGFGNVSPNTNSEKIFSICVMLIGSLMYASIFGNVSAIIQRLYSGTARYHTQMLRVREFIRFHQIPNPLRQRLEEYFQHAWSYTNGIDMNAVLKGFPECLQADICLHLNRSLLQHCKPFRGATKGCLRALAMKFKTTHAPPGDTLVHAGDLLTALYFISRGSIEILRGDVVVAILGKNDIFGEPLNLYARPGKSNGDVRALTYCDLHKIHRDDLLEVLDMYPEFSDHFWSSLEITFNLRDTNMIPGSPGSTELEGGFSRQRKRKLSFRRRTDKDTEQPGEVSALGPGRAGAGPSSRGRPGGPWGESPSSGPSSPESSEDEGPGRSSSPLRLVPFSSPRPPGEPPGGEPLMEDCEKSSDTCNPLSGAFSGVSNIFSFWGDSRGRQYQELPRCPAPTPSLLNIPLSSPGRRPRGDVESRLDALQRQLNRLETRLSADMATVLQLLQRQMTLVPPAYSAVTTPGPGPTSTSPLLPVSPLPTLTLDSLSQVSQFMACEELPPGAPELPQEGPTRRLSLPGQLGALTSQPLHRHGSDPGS

Compound | hERG current change (%, negative = inhibition) at 10uM [%]
NS(=O)(=O)c1ccc(NC(=O)Nc2ccc3c(c2)OCO3)cc1 | -1.4
COc1cc(CN2CCC(CCC(=O)NC3CC3)CC2)cc(Cl)c1OC | -55.4
CC(C)n1c(=O)c(C=Nc2cccc([N+](=O)[O-])c2)c(O)n(CCc2ccccc2)c1=O | -0.91
CN(Cc1nc2ccccc2c(=O)[nH]1)C(=O)c1cc(C2CC2)nn1-c1ccccc1 | -34.1
CCOc1ccccc1CNC(=O)CCCn1ncn2c(cc3occc32)c1=O | -11.2
Cc1csc(NC(=O)C(C)N2C(=O)c3ccccc3S2(=O)=O)n1 (stereo not shown) | -8.08
CN(C)/C=C(/C(=O)c1ccc(Cl)c(Cl)c1)S(C)(=O)=O | 13.4
Cc1cc(C)c(C)c(S(=O)(=O)NCc2cccnc2)c1C | -7.93
Cc1ccccc1C(=O)NC(CC(C)C)C(=O)N1CCN(c2ccccc2)CC1 (stereo not shown) | -11.1
O=C(NNC(=S)NC1CCCCC1)c1ccc2c(c1)OCO2 | 13.3
CC/S(C)=N/S(=O)(=O)c1ccc(C)cc1 (stereo not shown) | 7.95
Cc1nnc(SCc2nnc(-c3cccs3)o2)n1Cc1ccccc1 | 4.17
COCNc1nc(OCC#N)nc(N(C)C)n1 | -13.4
COc1cc(S(=O)(=O)Nc2cccc3cn[nH]c23)c(OC)cc1Cl | 4.63
Cc1ccc(NC(=O)Nc2ccc(Cl)c(Cl)c2)nc1 | 21.9
COC(=O)CNC(c1ccccc1)c1cc(Br)ccc1NC(=O)OCc1ccccc1 (stereo not shown) | 12.9
C/C(=N\O)C(=O)C(CN1CCCCC1)CN1CCCCC1 | 9.94
Cc1cc(C(=O)CSc2nnc(-c3cccnc3)n2-c2ccccc2)c(C)n1CC1CCCO1 (stereo not shown) | 0.17
O=C(OCc1c(Cl)cccc1Cl)c1ccccn1 | 4.9
CCC(C)(C)NC(=O)C(c1cccn1C)N(Cc1ccc(C)cc1)C(=O)Cn1nnc2ccccc21 (stereo not shown) | 18.6
Cc1nc(SCC(=O)Nc2cccnc2Cl)nc(C)c1C | 10.2
CCn1c(-c2ccoc2C)n[nH]c1=S | 16.1

Compound | hERG current change (%, negative = inhibition) at 10uM [%]
COc1ccc(-c2noc(CCC(=O)O)n2)cc1 | 6.57
COc1ccc(C(=O)CC2OC(=O)c3ccccc32)cc1OC (stereo not shown) | -17
CCN(C(=O)COC(=O)Cc1c[nH]c2ccccc12)C1CCS(=O)(=O)C1 (stereo not shown) | 2.84
CCN(CC)S(=O)(=O)c1ccc2oc(SCC3CN=C(c4ccc(OC)cc4)S3)nc2c1 (stereo not shown) | 23
CC(C)=CC1C(C(=O)Nc2ccc(Br)cn2)C1(C)C (stereo not shown) | -8.01
O=[N+]([O-])c1ccccc1Oc1ccc(S(=O)(=O)N2CCOCC2)cc1 | -63.8
COC(=O)C1=C(c2cccc(OCc3ccccc3)c2)C[C@@H]2CC[C@H]1N2C(=O)NCc1ccc(C(C)(C)C)cc1 | -1.8
O=C(NCc1ccccc1F)C1CCCN1C(=O)NCc1ccccc1 (stereo not shown) | 0.319
COc1ccccc1C1CC(c2cccs2)=Nc2ccccc2S1 (stereo not shown) | 14.4
CCC(=O)NC(NCC1CCCO1)C(Cl)(Cl)Cl (stereo not shown) | 9.52
O=C(CCCCn1c(=S)[nH]c2ccsc2c1=O)NCc1ccco1 | 16.6
COc1ccc(S(=O)(=O)Nc2nnc(C(C)(C)C)s2)cc1 | 5.14
Cc1noc(C)c1COc1ccc(C(=O)N2CCC(C)CC2)cc1 | -21.5
CC1Cc2cc(/C(O)=C3/C(=O)C(=O)N(CCN4CCOCC4)C3c3cccc(O)c3)ccc2O1 (stereo not shown) | -0.168
O=C(C1CCCO1)N1CCN(S(=O)(=O)c2cccc3nsnc23)CC1 (stereo not shown) | 7.77
CCOc1ccc(N2C(=O)Nc3ccccc3C2(O)C(=O)N2CCN(c3ccccn3)CC2)cc1 (stereo not shown) | 6.93
O=C(CSc1c2c(nc3cc(Cl)ccc13)CCCC2)NCCCN1CCOCC1 | -21.5
COc1ccc(C2(C(=O)Nc3ccc(C(=O)N4CCOCC4)cc3)CCOCC2)cc1 | -4.15
COc1ccc(OCC(=O)Nn2c(-c3ccc(OC)cc3)nc3ccccc3c2=O)cc1 | 4.3
Cc1ccccc1NC(=O)c1sc2nc3c(c(-c4ccco4)c2c1N)CCC3 | 10.5
COc1ccc(NC(=O)CS(=O)(=O)c2cccc(Cl)c2)cc1 | -3.59
